Among all 360,000 compounds or so, about 6,000 (1.7%) were called active. Inconclusive means that the source gave no clear call. Such entries were picked first, then a sample of the others. Calls come from the whole dose curve; as a rule, active = well fitted cell-killing curve with a large enough effect; inconclusive = small, poorly fitted or top-dose-only effect, or effect the other way; inactive = flat fitted curve, though single readings scatter. Potencies of inconclusive entries are left out as doubtful fits.
test: qHTS for induction of synthetic lethality in tumor cells producing 2HG: qHTS for the HT-1080-NT fibrosarcoma cell line; details: HT-1080-NT fibrosarcoma viability, CellTiter-Glo ATP luminescence, 48 h; activity, negative = less viability: at 46.1 µM (top of the series) unless noted;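 note: NT is the 2HG producing partner of a matched IDH1 knockdown line; nearly all actives have a fitted effect of over 55% in size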;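 for activity, negative = less viability: 0% = DMSO-treated cells and -100% = media-only wells without cells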
Method in brief: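 Toxicity toward the 2HG-producing NT line was scored as %Activity, normalised to DMSO and no-cell wells, from CellTiter-Glo luminescence after 48 hours' treatment.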
Potency is the fitted concentration of half-maximal effect; tags give direction and shape of the fitted curve.

SMILES | Potency | activity, negative = less viability
CN(C)c1ccc(NC(=O)C[n+]2ccccc2)cc1 | inactive | 
CN(C(=O)CSc1nc(-c2ccccc2)cn1N)C(c1ccccc1)c1ccccc1 | inconclusive [cytotoxic, single point] | 
CCOC(=O)c1ccc(NC(=O)CSc2nnc(CC)o2)cc1 | inconclusive [cytotoxic, partial curve, poor fit] | 
COc1cnc(-c2ccccc2)nc1OC | inactive | 
CN(C)/C=C/C(=O)c1ccc(N2CCN(c3ncc(C(F)(F)F)cc3Cl)CC2)cc1 | inconclusive [cytotoxic, single point] | 
CC1CCc2c(sc3ncnc(N4CCOCC4)c23)C1 (configuration not stated) | inconclusive [cytotoxic, single point] | 
CC(=O)C(Cl)C(=O)Nc1ccccc1 (configuration not stated) | inconclusive [cytotoxic, single point] | 
COC(=O)C(=Cc1ccc(-c2ccsc2C(=O)OC)o1)C(=O)OC | inconclusive [cytotoxic, partial curve] | 
CC(C)C(=O)Nc1nc2cc3c(cc2s1)OCCO3 | inactive | 
O=C1Nc2cc(C(=O)N3CCOCC3)ccc2S/C1=C\c1ccccc1 | inactive | 
COc1ccc(NC(=O)C(=O)NCC2CCCN2S(=O)(=O)c2cc(C)ccc2C)cc1 (configuration not stated) | inconclusive [cytotoxic, single point] | 
Cc1ccc(/C(=N\S(=O)(=O)c2ccc(Br)cc2)Nc2ccccc2C)cc1 |  | inconclusive: -30.8% [cytotoxic]
CCCn1c2ccccc2c2cnn(CC(=O)NCCN(CC)CC)c(=O)c21 | inconclusive [cytotoxic, partial curve] | 
COCCNC(=S)N(C)[C@H]1C[C@H]2c3cc(-c4ccccc4)ccc3CCN2C(=O)[C@H]1[C@H](C)O | inactive | 
CCCCc1nc(NCCN)c(C#N)c2c1CSC(C)(C)C2 | inconclusive [cytotoxic, single point] | 
COc1cc(-c2noc(C)c2/C=C/c2ccc(N)cc2)cc(OC)c1OC | active: 0.58 µM | 
Cc1cc(C)c(C#N)c(Nc2ccccc2Cl)n1 |  | inconclusive: 31.4%
CCN(C)c1ccc(/C=N\n2nnnc2N)cc1 | inconclusive [cytotoxic, full curve] | 
N#CCC1c2ccccc2CCN1C(=O)Nc1cccc(C(F)(F)F)c1 (configuration not stated) | active: 12.6 µM | 
Cc1ccc(NC(=O)Cc2cc(C(=O)O)c3ccccc3n2)c(C)c1 | inactive | 
CNS(=O)(=O)c1cccc(C(=O)OCC(=O)c2cc(C)n(-c3ccc4c(c3)OCO4)c2C)c1 | inactive | 
O=[N+]([O-])c1ccc(C[n+]2ccc(Cc3ccccc3)cc2)cc1 | inconclusive [cytotoxic, single point] | 
CCN(CC)S(=O)(=O)c1ccc(NC(=O)CCC2CCCCC2)cc1 | inconclusive [cytotoxic, single point] | 
C/C(Cn1cnc([N+](=O)[O-])n1)=N/NC(=O)COc1c(Cl)cc(Cl)cc1Cl | inactive | 

SMILES | Potency | activity, negative = less viability
Cc1ccc(Nc2c3c(nc4ccccc24)CCC3)cc1 | inconclusive [cytotoxic, single point] | 
COc1ccc(S(=O)(=O)/N=C2\C=C(NS(=O)(=O)c3ccccc3)C(=O)c3ccccc32)cc1 | active: 18.4 µM | 
O=C(NCCN1CCOCC1)c1cnn2c(-c3ccccc3)cc(-c3ccccc3)nc12 | inconclusive [cytotoxic, single point] | 
Cc1cc(S(=O)(=O)NC2CCN(Cc3ccccc3)CC2)c(C)cc1Cl | inconclusive [cytotoxic, single point] | 
Nc1nc(Nc2cccc(F)c2)nc2ccccc12 | inconclusive [cytotoxic, single point] | 
Cc1[nH]c(=O)c(C(=O)/C=C/c2ccccc2F)c2c1CCCC2 | active: 7.94 µM | 
O=C(c1ccc([N+](=O)[O-])cc1)N1CCN(C(=O)c2ccco2)CC1 | inactive | 
CCSC(=O)N1c2ccc(OC)cc2C=CC1C#N (configuration not stated) | active: 0.461 µM | 
COc1ccc(/C=C2\Sc3ccc(C(=O)N4CCN(Cc5ccccc5)CC4)cc3N(C)C2=O)cc1OC | inconclusive [cytotoxic, single point] | 
CCC1SC2=NCCN2C1(O)c1ccc(Cl)cc1 (configuration not stated) | inconclusive [cytotoxic, single point] | 
CC(C)(C)c1cc2nc(NCCOc3ccccc3)ccn2n1 | inactive | 
CCOC(=O)[C@]12Cc3c(cc(OC)c(OC)c3OC)[C@H]1N(Cc1ccccc1)C(=O)c1cc(F)c(F)cc12 | inconclusive [cytotoxic, single point] | 
CCCCN(C=O)c1c(CC)nc2c(OCCC3CCCCC3)cccn12 | inconclusive [cytotoxic, single point] | 
COc1ccc(-c2csc3ncnc(NCCN4CCOCC4)c23)cc1 | active: 23.1 µM | 
C/C(=N\Nc1ccccc1)c1c(O)cc(C)oc1=O | inconclusive [cytotoxic, partial curve, poor fit] | 
ClCc1nc2ccccc2c2ccccc12 | active: 5.8 µM | 
CCc1ccccc1NC(=O)c1sc2nc(C)cc(C)c2c1N | inactive | 
NC(=O)c1ccc(NC(=O)C2CCCC2)cc1 | inactive | 
COc1cccc(-c2cnc(C(O)c3ccc(OC)c(F)c3)[nH]2)c1 (configuration not stated) | inactive | 
COc1ccc(-c2ccc3[nH]c4c(c3c2)CCN2C(=O)[C@@H]([C@H](C)O)[C@@H](N(C)C(=O)Nc3cc(Cl)cc(Cl)c3)C[C@@H]42)cc1 | inconclusive [cytotoxic, single point] | 
O=C(c1ccc(S(=O)(=O)Cc2cc(F)ccc2F)c([N+](=O)[O-])c1)N1CCOCC1 | inconclusive [cytotoxic, single point] | 
O=C(CC1SC(=Nc2ccccc2)N(CCc2ccccn2)C1=O)Nc1ccc(F)cc1 (configuration not stated) | inconclusive [cytotoxic, single point] | 
O=C(O)c1ccc2c(c1)C(=O)N(c1cccc3ccccc13)C2=O |  | inconclusive: 15.7%

— PubChem BioAssay AID686970 (National Center for Advancing Translational Sciences (NCATS), 2013)
